Measured values: the supplement of paper PMC10320760
The data scatter; read single values as rough.

B1: Ydj1; a variant is named by its letters at X, in order (parent)
chain: MVKETKFYDILGVPVTATDVEIKKAYRKCALKYHPDKNPSEEAAEKFKEASAAYEILSDPEKRDIYDQFGEDGLSGAGGAGGFPGGGFGFGDDIFSQFFGAGGAQRPRGPQRGKDIKHEISASLEELYKGRTAKLALNKQILCKECEGRGGKKGAVKKCTSCNGQGIKFVTRQMGPMIQRFQTECDVCHGTGDIIDPKDRCKSCNGKKVENERKILEVHVEPGMKDGQRIVFKGEADQAPDVIPGDVVFIVSERPHKSFKRDGDDLVYEAEIDLLTAIAGGEFALEHVSGDWLKVGIVPGEVIAPGMRKVIEGKGMPIPKYGGYGNLIIKFTIKFPENHFTSEENLKKLEEILPPRIVPAIPKKATVDECVLADFDPAKYNRTRASRGGANYDSDEEEQGGEGVQCXXX

Variants of: B1
Test: enrichment factor, frequency at 37 °C / frequency at 25 °C (thermotolerance selection) (ratio); higher = more growth at 37 °C, higher likelihood of farnesylation
Conditions: with Saccharomyces cerevisiae ydj1Δ (yWS304); selective temperature 37 °C; reference temperature 25 °C
Experimental: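 Pooled library of all 8,000 Ydj1-CXXX C-terminal motif variants (native CASQ replaced by C + three variable residues, one codon per amino acid) expressed from a CEN plasmid in S. cerevisiae ydj1Δ (yWS304). The library was grown in SC-Ura liquid to A600 ~2 (~8 generations) at permissive 25 °C or selective 37 °C. Reads from 8 and 7 replicates were pooled and variants counted by NGS. Enrichment factor = frequency at 37 °C / frequency at 25 °C, with a +1 correction; it reports Ydj1-dependent thermotolerance, used as a read-out of farnesylation by yeast FTase.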
For MGA, the enrichment factor was 1.02.
Variant LFS has an enrichment factor of 1.83.
With LFW the enrichment factor was 1.36.
LFT gave an enrichment factor of 1.79.
Work on LFR yielded an enrichment factor of 0.195.
In the case of LFQ, the enrichment factor is reported as 2.8.
LFY gave an enrichment factor of 1.74.
LFP showed an enrichment factor of 0.217.
Variant LFV has an enrichment factor of 0.927.
Work on NFT yielded an enrichment factor of 1.43.
NFY was tested, and the enrichment factor was 2.05.
Variant NFQ has an enrichment factor of 3.29.
With NFR the enrichment factor was 0.414.
In the case of NFV, the enrichment factor is reported as 2.32.
In the case of NFS, the enrichment factor is reported as 5.02.
Work on NFP yielded an enrichment factor of 0.152.
NFW was tested, and the enrichment factor was 1.35.
Variant FFV has an enrichment factor of 5.09.
With FFS the enrichment factor was 2.66.
Variant FFR has an enrichment factor of 0.171.
With FFT the enrichment factor was 3.31.
FFQ showed an enrichment factor of 0.927.
FFW gave an enrichment factor of 1.68.
FFY was tested, and the enrichment factor was 1.12.
Work on KFV yielded an enrichment factor of 1.42.
With KFR the enrichment factor was 0.211.
Work on KFT yielded an enrichment factor of 2.8.
Variant KFS has an enrichment factor of 4.12.
Work on KFP yielded an enrichment factor of 0.214.
With KFW the enrichment factor was 0.744.
With KFQ the enrichment factor was 8.77.
KFY showed an enrichment factor of 1.88.
Variant IFP has an enrichment factor of 0.143.
Work on IFR yielded an enrichment factor of 0.562.
In the case of IFS, the enrichment factor is reported as 1.39.
IFY showed an enrichment factor of 1.16.
With IFT the enrichment factor was 0.643.
In the case of IFV, the enrichment factor is reported as 1.74.
For IFQ, the enrichment factor was 3.76.
IFW gave an enrichment factor of 1.45.
SFV showed an enrichment factor of 3.86.
With SFP the enrichment factor was 0.129.
Work on SFR yielded an enrichment factor of 0.247.
With SFY the enrichment factor was 3.44.
SFW was tested, and the enrichment factor was 1.79.
SFS showed an enrichment factor of 1.95.
SFT gave an enrichment factor of 2.35.
SFQ gave an enrichment factor of 1.68.
GFW was tested, and the enrichment factor was 1.25.
GFR showed an enrichment factor of 0.122.
For GFT, the enrichment factor was 1.9.
For GFS, the enrichment factor was 2.07.
GFQ was tested, and the enrichment factor was 1.72.
Work on GFY yielded an enrichment factor of 1.27.
GFV gave an enrichment factor of 1.12.
With GFP the enrichment factor was 0.183.
GGA was tested, and the enrichment factor was 0.321.
Work on WFY yielded an enrichment factor of 1.4.
WFS was tested, and the enrichment factor was 1.96.
WFT gave an enrichment factor of 1.52.
With WFP the enrichment factor was 1.48.
In the case of WFQ, the enrichment factor is reported as 1.24.
Work on WFW yielded an enrichment factor of 1.65.
In the case of WFR, the enrichment factor is reported as 0.399.
In the case of WFV, the enrichment factor is reported as 1.38.
With QFY the enrichment factor was 2.01.
Work on QFR yielded an enrichment factor of 0.47.
QFV showed an enrichment factor of 1.16.
Variant QFQ has an enrichment factor of 3.23.
QFP gave an enrichment factor of 0.184.
In the case of QFT, the enrichment factor is reported as 3.26.
In the case of QFS, the enrichment factor is reported as 2.64.
QFW showed an enrichment factor of 2.01.
In the case of HFQ, the enrichment factor is reported as 2.01.
HFR was tested, and the enrichment factor was 0.156.
Variant HFW has an enrichment factor of 1.82.
Variant HFY has an enrichment factor of 2.24.
In the case of HFS, the enrichment factor is reported as 4.95.
In the case of HFP, the enrichment factor is reported as 0.911.
Work on HFT yielded an enrichment factor of 4.57.
HFV was tested, and the enrichment factor was 5.5.
DFW showed an enrichment factor of 0.643.
Variant DFQ has an enrichment factor of 1.98.
With DFS the enrichment factor was 1.35.
For DFY, the enrichment factor was 0.255.
Work on DFV yielded an enrichment factor of 1.97.
DFR showed an enrichment factor of 0.153.
For DFP, the enrichment factor was 0.165.
With DFT the enrichment factor was 1.51.
TFS gave an enrichment factor of 6.95.
With TFW the enrichment factor was 2.43.
In the case of TFP, the enrichment factor is reported as 0.194.
TFR was tested, and the enrichment factor was 0.719.
For TFV, the enrichment factor was 1.35.
With TFY the enrichment factor was 2.03.
TFQ was tested, and the enrichment factor was 2.43.
TFT gave an enrichment factor of 4.21.
Variant EGA has an enrichment factor of 0.519.
With IGA the enrichment factor was 1.14.
EFS showed an enrichment factor of 1.11.
EFT gave an enrichment factor of 1.26.
In the case of EFW, the enrichment factor is reported as 1.31.
Work on EFV yielded an enrichment factor of 2.4.
With EFR the enrichment factor was 0.984.
EFY gave an enrichment factor of 1.5.
EFQ showed an enrichment factor of 3.28.
Variant LGA has an enrichment factor of 1.33.
For KGA, the enrichment factor was 0.846.
In the case of AGA, the enrichment factor is reported as 1.51.
RFV showed an enrichment factor of 0.632.
RFY showed an enrichment factor of 2.47.
RFT was tested, and the enrichment factor was 1.23.
With RFS the enrichment factor was 4.25.
Variant RFQ has an enrichment factor of 2.24.
For RFW, the enrichment factor was 0.993.
RFP showed an enrichment factor of 0.116.
Work on RFR yielded an enrichment factor of 0.129.
In the case of CFP, the enrichment factor is reported as 1.23.
With CFT the enrichment factor was 1.
Variant CFQ has an enrichment factor of 0.901.
Work on CFY yielded an enrichment factor of 0.158.
For CFS, the enrichment factor was 0.414.
Variant CFW has an enrichment factor of 0.203.
With CFV the enrichment factor was 0.29.
Variant CFR has an enrichment factor of 0.446.
For AFT, the enrichment factor was 2.5.
Variant AFV has an enrichment factor of 2.7.
In the case of AFR, the enrichment factor is reported as 0.584.
AFP showed an enrichment factor of 0.0998.
Variant AFW has an enrichment factor of 1.35.
For AFS, the enrichment factor was 2.98.
With AFQ the enrichment factor was 2.43.
AFY showed an enrichment factor of 2.32.
Variant FGA has an enrichment factor of 0.823.
In the case of VFV, the enrichment factor is reported as 0.869.
For VFP, the enrichment factor was 0.124.
VFQ gave an enrichment factor of 0.993.
Variant VFW has an enrichment factor of 0.662.
VFR was tested, and the enrichment factor was 1.56.
With VFT the enrichment factor was 1.45.
VFY gave an enrichment factor of 1.01.
For VFS, the enrichment factor was 1.54.
PFS showed an enrichment factor of 1.51.
For PFV, the enrichment factor was 1.33.
Work on PFQ yielded an enrichment factor of 1.88.
In the case of PFY, the enrichment factor is reported as 1.39.
In the case of PFP, the enrichment factor is reported as 0.183.
Work on PFT yielded an enrichment factor of 1.67.
With PFW the enrichment factor was 0.767.
Work on PFR yielded an enrichment factor of 0.203.
MFQ was tested, and the enrichment factor was 1.68.
For MFP, the enrichment factor was 0.153.
In the case of MFR, the enrichment factor is reported as 0.251.
For MFS, the enrichment factor was 1.09.
Work on MFV yielded an enrichment factor of 4.63.
With MFT the enrichment factor was 2.68.
Work on MFW yielded an enrichment factor of 1.59.
Variant MFY has an enrichment factor of 1.88.
HGA gave an enrichment factor of 0.711.
YFV showed an enrichment factor of 3.04.
YFP gave an enrichment factor of 0.273.
YFT showed an enrichment factor of 3.59.
YFS showed an enrichment factor of 3.97.
In the case of YFW, the enrichment factor is reported as 1.08.
Work on YFY yielded an enrichment factor of 1.46.
YFR showed an enrichment factor of 0.192.
Work on YFQ yielded an enrichment factor of 0.811.
